Molecules are shown by their SMILES.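 96-well plates; 48 h exposure; 5 concentrations. Endpoints by linear interpolation between flanking doses. Not reached: highest tested concentration assigned. GI50 is the concentration that inhibits growth by half.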 Calls of active or inactive are those of the source. Cut-off read from the data, not from the text of the source: active = GI50 up to about 1.1 µM and inactive = higher.

Consider 87 molecules from ChEMBL document CHEMBL1201862, “PubChem BioAssay data set” (2004).

For the experiment, the system named is NCI-H322M. Kind of experiment: inhibition of tumour cell growth, NCI panel, 48 h.
Turning to `Cc1cccc2nc3n(c12)C(=O)c1ccccc1-3`, the GI50 is inactive: > 100 µM. For `[O-][S+](c1ccc(Cl)cc1)c1ccccc1C1=NCCN1` (configuration not stated) the value was inactive: > 100 µM; for `N#Cc1ccc(OC(=O)c2ccc(NC(=N)N)cc2)cc1.c1ccncc1`, inactive: > 100 µM; for `Cc1ncc(CSc2ccccc2N)c(CO)c1O`, inactive: > 100 µM.

As for `CN(CCNC(=O)c1cn(C)c2c1ccc1ccccc12)CCNC(=O)c1cn(C)c2c1ccc1ccccc12`, the GI50 was inactive: 3.77 µM.

For the molecule `Cc1ccc2nc(C(=O)O)c(=O)[nH]c2c1`, the GI50 was inactive: > 100 µM. For `Cc1cc2c3c([nH]c2c2ccnc(C)c12)CCCC3` the value was inactive: 3.36 µM; for `COc1ccc2c(c1)CC[C@@H]1C2CC[C@]2(C)C(=O)N(N)C(=O)CC12` (some centres not stated), inactive: > 100 µM; for `C\C=C/C=C/C=C/C(=O)O`, inactive: > 100 µM. As to `Cn1c(=O)[nH]c2sc3c(c2c1=N)CCCC3`, the GI50 was inactive: > 75 µM. For `CCCC(CCC(N)=O)(CCC(N)=O)[N+](=O)[O-]` the value was inactive: > 100 µM. With `CCNC(=O)Nc1cccc(C)n1`, the GI50 is inactive: > 100 µM. With `COc1cc2cnc3c4cc(O)ccc4ccc3c2cc1OC`, the GI50 is inactive: > 100 µM. The result for `COCCNC(=O)C1C(=O)N(CCOC)C(=O)/C1=N/N` (configuration not stated) reads inactive: > 100 µM.

Take `CCCC(=O)c1c(NOC2OC(COC(C)=O)C(OC(C)=O)C(OC(C)=O)C2OC(C)=O)nc(OC)n(C)c1=O` (configuration not stated): the GI50 was inactive: > 100 µM. For `O=[N+]([O-])/C(C(Cl)=C(Cl)Cl)=C(/Sc1ccccc1)N1CCOCC1` the value was inactive: 16.7 µM. For `Cc1cc(N(CCC#N)CCC#N)ccc1/C=C(/NC(=O)/C=C/c1ccccc1)C(N)=O` the value was inactive: > 100 µM; for `Clc1ccccc1C(SCc1ccccc1)SCc1ccccc1`, inactive: > 100 µM.

As for `COc1ccc(Nc2c(C#N)c3n(c4ccccc24)c2ccccc2[n+]3C)cc1OC`, the GI50 is inactive: 3.13 µM. Take `CC(=O)OC1COC(n2c(-c3ccc(Cl)cc3)cc(-c3ccccc3)c(C#N)c2=S)C(OC(C)=O)C1OC(C)=O` (configuration not stated): the GI50 was inactive: 29.6 µM. For `CCN(CC)c1ccc(/N=N/c2ccc(-c3nc4cccnc4s3)cc2)cc1` the value was inactive: > 100 µM; for `CCCCCCCCOCC(O)COC(C)C` (configuration not stated), inactive: > 100 µM; for `CCCCN(CC)CC(C(C)=O)c1c(O)c2ccccc2oc1=O` (configuration not stated), inactive: > 100 µM. For `C=C1CC[C@H](O)C(C)(C)[C@@H]1CC/C(C)=C/CC/C=C(\C)CC/C=C(\C)CCC=C(C)C` the value was inactive: > 100 µM; for `COC(=N)/C(=C1\OC(=N)C(c2ccc(Cl)cc2)=C1O)c1ccc(Cl)cc1`, inactive: > 100 µM. For the molecule `COc1cc(C)c2c(c1)CN1CN2Cc2cc(OC)cc(C)c21`, the GI50 was inactive: > 100 µM. Take `CCOC(=O)NN1C(=O)C(=P(c2ccccc2)(c2ccccc2)c2ccccc2)C(C(=O)OC)=C1C`: the GI50 is inactive: > 100 µM.

As for `COC(=O)c1c(O)ccc2c1c1c(n2Cc2cc(OC)cc(OC)c2)C(=O)c2ccccc2C1`, the GI50 was inactive: 84.3 µM.

In the case of `O=C(NCCCCNCCCNC(=O)C(F)(F)F)C(F)(F)F`, the GI50 was inactive: > 100 µM. Take `CC1CCCc2c(-c3ccc(Cl)cc3)nc(N)c(C#N)c21` (configuration not stated): the GI50 is inactive: 57.5 µM. For `CCOC(=O)N1N(c2ccccc2)C(=O)C1(c1ccccc1)c1ccccc1` the value was inactive: > 100 µM. On to `O=c1nc2ccc3sc4ccccc4c(=O)c3n2c(=O)[nH]1`, for which the GI50 is inactive: 74.1 µM. The result for `CCN1C(=O)C(N=[N+]=[N-])(c2ccccc2)C(=O)c2ccccc21` (configuration not stated) reads inactive: > 100 µM. The result for `O=c1[nH]nc(-c2cccc(Br)c2)[nH]1` reads inactive: > 100 µM; that for `N/C(=N\OC(=O)NC(Cl)=C(Cl)Cl)c1cc(C(F)(F)F)cc(C(F)(F)F)c1`, inactive: 12.4 µM; that for `CCOP(=O)(OCC)/C(C#N)=C/c1cnc(C)[nH]1`, inactive: > 100 µM. The result for `C[N+](C)(C)CC(=O)N/N=C(/Cc1nc2ccc(Cl)cc2nc1O)C1=NS(=O)(=O)c2cc(S(N)(=O)=O)c(Cl)cc2N1` reads inactive: > 100 µM; that for `Cc1c2ccnc(C(N)=O)c2c(C)c2c1[nH]c1ccccc12`, inactive: 5.45 µM; that for `CSC(=S)c1ccc(C(=S)SC)cc1`, inactive: > 100 µM. With `C=C=C(C(=O)OC)[S+]([O-])c1ccc([N+](=O)[O-])cc1[N+](=O)[O-]` (configuration not stated), the GI50 is inactive: > 74.5 µM. As for `COC(=O)C12C3C4C1C1C2C3C41C(=O)OC(C)(C)C` (configuration not stated), the GI50 was inactive: > 100 µM. The result for `CCOC(=O)/C=C\c1c(Cl)n(-c2ccccc2)c(=O)n(-c2ccccc2)c1=O` reads inactive: 20.1 µM. Turning to `[N-]=[N+]=NC(c1cn(C2CC(O)C(CO)O2)c(=O)[nH]c1=O)C(Br)I` (configuration not stated), the GI50 was inactive: > 100 µM.

For `Brc1c(C#CCC2CCCCC2)ccc(C#CCC2CCCCC2)c1Br`, the GI50 is inactive: > 100 µM. On to `N#CC1=C(c2ccccc2)NNC(c2ccc(Cl)cc2)CC1=O` (configuration not stated), for which the GI50 is inactive: 36.7 µM.

For `COC1=CC(=O)O/C1=C(\OC)C1OC1c1ccccc1` (configuration not stated), the GI50 is inactive: > 100 µM. For `CSC1=N/C(=C\c2cccs2)C(=O)N1CN1CCCCC1` the value was inactive: > 100 µM; for `O=C(Nc1ccc(Br)cc1)C(=O)C(C(=O)c1ccccc1F)C1OC(=O)c2ccccc21` (configuration not stated), inactive: 29.2 µM. For `Cc1cc2c3c(ccc4[nH]cc(c43)CN2c2ccc(NS(C)(=O)=O)cc2)n1` the value was inactive: 12.6 µM; for `Cc1cc(C2CC(O)C(CO)O2)c(F)cc1F` (configuration not stated), inactive: > 100 µM. The result for `C=CNC(=S)n1nc(-c2ccccc2NC(=O)C(F)(F)F)c(=O)n(C(=S)NC=C)c1=S` reads inactive: 38.6 µM. Consider `COc1cc(COC(=O)N(C)[C@@H](Cc2ccccc2)C(=O)O)c([N+](=O)[O-])cc1OC`, for which the GI50 is inactive: > 100 µM. As for `CC(=O)Nc1ccc(C2SCc3nc4ccccc4n32)cc1` (configuration not stated), the GI50 was inactive: > 100 µM. For `CC1(C)O[C@@H]([C@H](O)CO)[C@H](O)[C@@H](C2SCCCS2)O1` the value was inactive: > 100 µM; for `N#CC(NCc1cccc(CNC(C#N)c2ccccc2)c1)c1ccccc1` (configuration not stated), inactive: 30.7 µM; for `N#Cc1c(-c2ccccc2)cc(Nc2cccc(C(F)(F)F)c2)n2c1nc1ccccc12`, inactive: 1.92 µM.

For the molecule `CC(C)=CCC/C(C)=C/CC/C(C)=C/CC/C(C)=C/CC/C(C)=C\CC/C(C)=C/CC/C(C)=C/CC/C(C)=C/Cc1cc(O)ccc1O`, the GI50 was inactive: 6.27 µM. The result for `CN1C(OCc2ccccc2)c2c(ccc3c2OCO3)C2C=Cc3cc4c(cc3C21)OCO4` (configuration not stated) reads inactive: 1.23 µM; that for `SC1=NNC2(C(S)=N1)c1ccccc1-c1ccccc12`, inactive: > 10 µM.

For the molecule `SC[C@@H]1COC[C@H](CS)S1`, the GI50 is inactive: > 100 µM.

Take `O=C1c2ccccc2NC2C(O)c3ccccc3N12` (configuration not stated): the GI50 is inactive: 47.9 µM. For `O=C1CC(=O)NC(NN2C(=O)CSC2c2ccccc2)=N1` (configuration not stated) the value was inactive: > 100 µM; for `CN(C)S(=O)(=O)c1ccc2c(c1)/C(=C1/Nc3ccccc3C1=O)C(=O)N2`, inactive: 40.8 µM. For the molecule `COc1cc2c3c(c1OC)-c1ccccc1C(C(OC(C)=O)c1ccccc1)C3N(C)CC2` (configuration not stated), the GI50 was inactive: > 100 µM. `CC1(C)CCCC2OC2CCC(C)(C)C1=O` (configuration not stated): the GI50 is inactive: > 100 µM. For the molecule `COC(=O)C(/C(=N/N)C(=O)Nc1ccc(C)c(C)c1)c1nc2ccc(Cl)cc2nc1O` (configuration not stated), the GI50 is inactive: > 100 µM. In the case of `COC(=O)/C=C1\C(=O)N(C(C)=O)c2ccc(Br)cc21`, the GI50 is inactive: 18.5 µM. The result for `O=C1NC(c2c(Cl)cccc2Cl)Nc2ccccc21` (configuration not stated) reads inactive: 56.2 µM; that for `CO/C(N)=C(C#N)/N=C/c1cccnc1`, inactive: > 100 µM; that for `CC(=O)CN(Cc1cc(C)c2c(c1)c1ccccc1n2Cc1ccccc1)S(=O)(=O)c1ccc(C)cc1`, inactive: > 100 µM. The result for `CC[P+]1(CC)CCCC1` reads inactive: > 100 µM.

For the molecule `O=C1c2ccccc2-c2nc(-c3ccncc3)cc3c2c1nc1ccccc13`, the GI50 was inactive: 27.9 µM. The result for `CCN(CC)CCNc1c2ccccc2nc2cccc([N+](=O)[O-])c12` reads active: 0.0131 µM. For `OCCNCNc1nc(NCNCCO)nc(N(CNCCO)CNCCO)n1`, the GI50 is inactive: 43.5 µM. Turning to `O=P(Nc1ccccc1)(Oc1ccccc1)N(CCCl)CCCl` (configuration not stated), the GI50 was inactive: > 100 µM.

Regarding `Cc1ccc(/N=N/c2ccc(O)c(CN(C)C)c2)cc1C`, the GI50 is inactive: 31.4 µM.

Regarding `c1ccc(/N=C2\c3ccsc3/C(=N/c3ccccc3)c3ccsc32)cc1`, the GI50 is inactive: 2.78 µM. The result for `CC1(C)N=c2[nH]cnc2=C(C(N)=O)N1` reads inactive: > 100 µM.

Take `COC(=O)C(C)(C)[C@@H]1OC(=O)N(S(=O)(=O)c2c(C)cc(C)cc2C)[C@H]1C(C)C`: the GI50 was inactive: > 100 µM. With `COC(=O)CCC(NC(=S)N/N=C(\C)c1ccccn1)C(=O)OC` (configuration not stated), the GI50 was inactive: 59.8 µM. In the case of `Cc1ccc(/C=C/C(=O)Oc2ccc(/C=C3\CCC/C(=C\c4ccc(OC(=O)/C=C/c5ccc(C)cc5)cc4)C3=O)cc2)cc1`, the GI50 is inactive: > 100 µM. For `CN(CCO)c1nc(N)cc(=O)[nH]1`, the GI50 was inactive: > 100 µM. In the case of `CCOC(=O)CCCSCCCC(=O)CCCSCCCC(=O)OCC`, the GI50 is inactive: > 100 µM. The result for `COc1ccc2c3c(c(=O)n(C)c2c1OC)C=CC(C)(C)O3` reads inactive: 89.9 µM. For `O=C(O)CN(c1ccc(Cl)cc1)S(=O)(=O)c1ccccc1` the value was inactive: > 100 µM. On to `Cc1cc(C)c2c(O)cc(-c3cccc(F)c3)nc2n1`, for which the GI50 was active: 0.224 µM. The result for `N#CC(C#N)=C(N)/C(C#N)=C/c1cc(O)c(O)c(Br)c1` reads inactive: 52 µM.
